# Experimental data taken from the supplement of paper PMC11417369.
# This is one part of the list.
# Test system: PfAP2-HC AP2 domain (GST-tagged)
# Assay: gcPBM binding intensity (ln(normalized median fluorescence intensity)); higher = stronger DNA binding
# Outline: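 Binding intensity values are the highest Masliner-normalised natural-log median intensity among replicate spots of either probe orientation. The binding step lasted 1 h in 1× PBS with 1% milk, 0.2 mg/ml BSA, 0.5% salmon testes DNA and 0.03% Triton X-100, using GST-tagged P. falciparum DNA-binding domains expressed in E. coli on an Agilent 4 × 180k array of primer-extended double-stranded 36-bp intergenic genomic probes plus negative controls. Alexa488 anti-GST antibody and a 488 nm scan detected bound protein.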
row,Sequence,gcPBM binding intensity (ln)
1,TGAACACGCACAAATACACACAAAAAAAATAAATAA [CACACA_site6257],10.3
2,AACAAAATAGGGAACACACACATGTCAATATATAAA [CACACA_site2596],10.4
3,AAAAAAAAATTAAAAACACACATATAAATAAATATA [CACACA_site6845],9.8
4,CACATACACATACAAACACACATTAGATATAAATAT [CACACA_site6854],10.3
5,AAAAAAAATTAATAGGGTACATGAAAAGTGGAATAT [XGTACX_site618],9.87
6,ATAGAAGAAATATGCACACATACATTGAAATGTTTT [CACACA_site321],9.84
7,TTTTTATTTATTAATACACACACACCCACCCACAAA [CACACA_site7965],10.4
8,AAAGAAAAAAATAATTGTACATTTATATTTAATTTA [XGTACX_site8003],9.47
9,TTTTTTTTTAAATAATGTACTTTTCATTATTTAGAT [XGTACX_site1706],9.54
10,TAATTTTATATATGCACACAAAATATGTTCATATAA [CACACA_site4076],9.64
11,TGAAAAATGTTGATGTGTACTTATATAGTGTGTTAA [XGTACX_site2100],9.82
12,TTTAACATAAATTAAACACACAATATAATACATTAA [CACACA_site1237],9.72
13,TTTTTTTTTTTTTTTTGTACGTAATATATGATTAAT [XGTACX_site6876],9.33
14,CATTTTATCAAAAGTGGTACAACCCTTTCAAAAAAT [XGTACX_site341],9.33
15,AAATTACTTTCACAGTGTACTTGGAAAAAAAAAAGA [XGTACX_site1046],9.57
16,AGATATAATAAATATACACACATATATATATATATA [CACACA_site962],9.56
17,ATATATATTTTTATTTGTACATAATTTTTTTTGTGA [XGTACX_site6378],9.62
18,TTTTTTTTTTTTTGCACACACATATATAGATATATA [CACACA_site7784],9.95
19,ATAAAATTGTTTAAATGTACATATGAACAGTCAGTA [XGTACX_site5140],9.73
20,ATATATGTAATAAATAGTACACACACACATATATAT [XGTACX_site2817],10.4
21,ATATATATTTAAATGTGTACTCATTTATTTTATGTC [XGTACX_site4984],9.78
22,ATAGTATAACAGCAATGTACACATATTTGTGTATAT [XGTACX_site7899],10

row,Sequence,gcPBM binding intensity (ln)
1,TATATATATAAACACACACACACATATATATATATT [CACACA_site8814],10.5
2,TTTTTTTTTTTTGTCACACATATATTTGTATTTATA [CACACA_site5234],9.78
3,TGATATTTATAATAAATATTATAATAAAATCAAACA [XGTACX_negctrl_site219],9.6
4,ATATATATAATATAATGTACATATATTTTATTTTTA [XGTACX_site3819],9.58
5,TATATACATTTATGTACACACACATATATGTATATT [CACACA_site8971],9.96
6,ATATATTAATTTAATTGTACGAATAAAAAAAAAAAA [XGTACX_site223],9.53
7,AAAGCACCCAAGAATACACACAAATATTATAAAAAA [CACACA_site111],9.99
8,TAATGTATTATATTTAGTACATATAAAAATAATTTT [XGTACX_site6886],9.52
9,ACGTATTAGATAAATACACACACAAGCATATATTTT [CACACA_site9135],10.1
10,TAATAAATGGCTAGTTGTACAGAAATATAAATATTA [XGTACX_site4579],9.51
11,AGATTCAAAAATAAAACATGCAAAAATAAAACGTGC [TGCATGCA_site501],9.76
12,ATATATATTGTACTAGTGCATATATATACATATATT,9.68
13,ATAAATAAAAACACAAAACAAAACAAAACAAAACAA [CACACA_negctrl_site1257],9.61
14,TTTCATCTATATGAAACACACAAAGGAAAAAAAATT [CACACA_site7869],9.62
15,TAATACCATTGTCATGCATGCACATTATTACTCTAA [TGCATGCA_site160],9.82
16,TCGTAATTTTTTTTTATATATTAGGAATTTATAAAA [XGTACX_negctrl_site409],9.13
17,ATATTATATTTCTTTTGTACATATTATATAATATAT [XGTACX_site7198],10.1
18,TTTTTTTTGTGTATTTGTACATAATATATATATATA [XGTACX_site7092],9.74
19,AAAATTGTTATTTTATGTACTTATATTTATTTATTT [XGTACX_site3478],9.84
20,AAAAGGTATGTTATACATAGATATGCACATATATGT [TGCATGCA_negctrl_site96],9.77
21,GTAGGATTTTCTTTTGTGCGCAATATAAAAAGAAAA [GTGCAC_site9514],9.53
22,ATTAATATAAAAAGGTAAATGGATGTAATATATATA [XGTACX_negctrl_site2],9.73
